No constants are given. Whether binding was seen depends on the method and setting. Binding seen in cells or lysates may run through a third protein. Some results given as binding are weak or reduced against the parent protein; the word gives no strength. Sequences can lack the tags named with a protein.
Key:
[1] = target: T1, full-length HA-MST2 wild-type (human) (UniProt Q13188); test: co-IP; HEK293 cells co-expressing myc-MOB1A variants and HA-tagged kinases; IP with anti-HA (12CA5), blot anti-myc; low-stringency buffer (30 mM HEPES pH 7.4, 20 mM KCl, 1% TX-100)
T1 sequence: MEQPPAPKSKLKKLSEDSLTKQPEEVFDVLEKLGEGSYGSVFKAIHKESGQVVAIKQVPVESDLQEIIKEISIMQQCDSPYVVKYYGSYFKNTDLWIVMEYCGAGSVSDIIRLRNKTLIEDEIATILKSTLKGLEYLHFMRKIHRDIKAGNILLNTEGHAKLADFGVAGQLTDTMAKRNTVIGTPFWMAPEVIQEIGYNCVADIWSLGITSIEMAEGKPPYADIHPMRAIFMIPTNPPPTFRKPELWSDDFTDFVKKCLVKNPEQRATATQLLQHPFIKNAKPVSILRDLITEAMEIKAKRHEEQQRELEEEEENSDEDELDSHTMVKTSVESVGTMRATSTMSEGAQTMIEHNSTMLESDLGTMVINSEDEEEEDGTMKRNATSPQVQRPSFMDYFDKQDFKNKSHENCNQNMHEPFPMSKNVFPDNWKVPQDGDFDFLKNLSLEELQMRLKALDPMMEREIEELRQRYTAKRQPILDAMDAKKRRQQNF

The chains behind the UniProt entries cited, without tags or fusion partners.
UniProt Q15208: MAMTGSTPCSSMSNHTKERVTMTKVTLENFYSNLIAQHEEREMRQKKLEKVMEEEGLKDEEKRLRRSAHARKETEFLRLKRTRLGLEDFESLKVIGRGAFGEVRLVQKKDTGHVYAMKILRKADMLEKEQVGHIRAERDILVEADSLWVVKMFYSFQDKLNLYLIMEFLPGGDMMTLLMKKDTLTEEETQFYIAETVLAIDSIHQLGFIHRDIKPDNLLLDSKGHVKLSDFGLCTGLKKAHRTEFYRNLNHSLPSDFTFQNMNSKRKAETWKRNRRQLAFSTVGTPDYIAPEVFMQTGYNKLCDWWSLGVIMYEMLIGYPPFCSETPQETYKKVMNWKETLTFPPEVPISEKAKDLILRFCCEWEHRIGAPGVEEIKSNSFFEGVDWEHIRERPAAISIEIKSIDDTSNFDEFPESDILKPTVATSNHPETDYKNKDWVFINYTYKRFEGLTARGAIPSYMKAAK
UniProt Q9Y2H1: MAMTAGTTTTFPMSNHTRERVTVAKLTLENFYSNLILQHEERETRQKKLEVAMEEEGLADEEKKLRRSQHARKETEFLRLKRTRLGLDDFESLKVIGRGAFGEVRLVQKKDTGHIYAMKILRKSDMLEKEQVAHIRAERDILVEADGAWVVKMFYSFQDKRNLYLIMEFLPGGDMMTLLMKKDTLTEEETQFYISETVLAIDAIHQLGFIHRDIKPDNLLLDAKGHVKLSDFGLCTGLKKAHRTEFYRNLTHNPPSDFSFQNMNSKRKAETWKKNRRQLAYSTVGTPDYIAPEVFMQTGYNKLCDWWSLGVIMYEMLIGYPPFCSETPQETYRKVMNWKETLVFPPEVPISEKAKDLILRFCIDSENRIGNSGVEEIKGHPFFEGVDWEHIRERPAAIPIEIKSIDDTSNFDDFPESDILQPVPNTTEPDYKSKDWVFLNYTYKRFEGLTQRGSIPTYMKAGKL

[2] = target: HA-tagged wild-type human NDR1 (human) (UniProt Q15208); test: as above
[3] = target: T2, HA-tagged full-length wild-type human LATS2 (human) (UniProt Q9NRM7); test: as above
T2 sequence: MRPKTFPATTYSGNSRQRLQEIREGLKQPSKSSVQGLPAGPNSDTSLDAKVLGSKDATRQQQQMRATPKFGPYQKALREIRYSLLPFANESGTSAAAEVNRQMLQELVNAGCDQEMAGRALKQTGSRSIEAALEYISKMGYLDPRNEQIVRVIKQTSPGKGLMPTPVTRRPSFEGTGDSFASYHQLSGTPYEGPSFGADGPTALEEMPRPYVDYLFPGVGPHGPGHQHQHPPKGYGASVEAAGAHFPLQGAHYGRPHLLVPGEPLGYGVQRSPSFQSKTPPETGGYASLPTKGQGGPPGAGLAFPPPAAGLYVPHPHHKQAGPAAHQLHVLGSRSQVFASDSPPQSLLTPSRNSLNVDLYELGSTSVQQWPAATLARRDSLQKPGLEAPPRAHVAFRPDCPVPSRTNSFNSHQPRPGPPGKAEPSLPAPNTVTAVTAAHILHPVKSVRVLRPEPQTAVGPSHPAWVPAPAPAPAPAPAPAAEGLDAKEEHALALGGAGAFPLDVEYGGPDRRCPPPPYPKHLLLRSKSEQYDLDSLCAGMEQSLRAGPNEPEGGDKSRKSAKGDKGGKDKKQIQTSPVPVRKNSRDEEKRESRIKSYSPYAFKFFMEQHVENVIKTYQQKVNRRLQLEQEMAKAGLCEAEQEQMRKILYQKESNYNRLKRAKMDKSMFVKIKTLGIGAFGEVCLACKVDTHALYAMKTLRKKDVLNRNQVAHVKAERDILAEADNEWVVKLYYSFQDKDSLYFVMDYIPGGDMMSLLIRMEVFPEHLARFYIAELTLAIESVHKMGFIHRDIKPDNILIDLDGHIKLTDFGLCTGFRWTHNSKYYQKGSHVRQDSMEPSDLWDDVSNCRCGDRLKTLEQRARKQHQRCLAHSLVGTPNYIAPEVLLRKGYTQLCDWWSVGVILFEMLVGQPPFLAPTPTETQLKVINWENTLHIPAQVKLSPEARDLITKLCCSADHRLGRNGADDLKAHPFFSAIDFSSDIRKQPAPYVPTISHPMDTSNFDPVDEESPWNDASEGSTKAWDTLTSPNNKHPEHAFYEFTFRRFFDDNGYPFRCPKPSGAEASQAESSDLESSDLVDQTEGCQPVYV

[4] = target: T3, full-length HA-MST1 wild-type (human) (UniProt Q13043); test: as above
T3 sequence: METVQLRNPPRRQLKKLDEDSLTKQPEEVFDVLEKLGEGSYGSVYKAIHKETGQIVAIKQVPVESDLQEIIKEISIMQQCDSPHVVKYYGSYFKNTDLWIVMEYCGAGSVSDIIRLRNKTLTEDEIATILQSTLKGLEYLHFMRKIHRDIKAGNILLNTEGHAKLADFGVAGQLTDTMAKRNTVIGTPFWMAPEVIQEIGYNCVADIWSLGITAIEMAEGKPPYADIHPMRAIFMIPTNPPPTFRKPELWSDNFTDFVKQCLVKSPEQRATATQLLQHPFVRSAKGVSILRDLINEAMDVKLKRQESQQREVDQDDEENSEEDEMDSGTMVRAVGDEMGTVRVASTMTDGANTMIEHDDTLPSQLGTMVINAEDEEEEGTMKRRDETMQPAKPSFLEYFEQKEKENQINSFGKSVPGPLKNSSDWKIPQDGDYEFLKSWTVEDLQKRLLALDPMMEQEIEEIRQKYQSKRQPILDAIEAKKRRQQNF

[5] = target: HA-tagged wild-type human NDR2 (human) (UniProt Q9Y2H1); test: as above
[6] = target: T1, full-length HA-MST2 wild-type (human); test: co-IP; three additional co-immunoprecipitation conditions: RIPA, PBS-E or standard lysis buffer (Supplementary Fig. 8); MOB1 with human MST2

B1: myc-tagged full-length human MOB1A wild-type (HEK293) (protein, UniProt Q9H8S9 1-216)
chain: MSFLFSSRSSKTFKPKKNIPEGSHQYELLKHAEATLGSGNLRQAVMLPEGEDLNEWIAVNTVDFFNQINMLYGTITEFCTEASCPVMSAGPRYEYHWADGTNIKKPIKCSAPKYIDYLMTWVQDQLDDETLFPSKIGVPFPKNFMSVAKTILKRLFRVYAHIYHQHFDSVMQLQEEAHLNTSFKHFIFFVQEFNLIDRRELAPLQELIEKLGSKDR
For B1, the binding [1] was “binds”, the binding [2] was “binds” and the binding [3] was “binds”. The binding [4] was “binds”, the binding [5] was “binds” and the binding [6] was “binds”.

B2: myc-tagged full-length human MOB1A(K104E/K105E) (HEK293) (protein, UniProt Q9H8S9 1-216)
chain: MSFLFSSRSSKTFKPKKNIPEGSHQYELLKHAEATLGSGNLRQAVMLPEGEDLNEWIAVNTVDFFNQINMLYGTITEFCTEASCPVMSAGPRYEYHWADGTNIEEPIKCSAPKYIDYLMTWVQDQLDDETLFPSKIGVPFPKNFMSVAKTILKRLFRVYAHIYHQHFDSVMQLQEEAHLNTSFKHFIFFVQEFNLIDRRELAPLQELIEKLGSKDR
With B2 the binding [1] was “no binding”, the binding [2] was “binds” and the binding [3] was “binds”. For the same binder, the binding [4] was “no binding”, the binding [5] was “binds” and the binding [6] was “no binding”.
